Source: article PMC6919601, “Identification of Plasmodium dipeptidyl aminopeptidase allosteric inhibitors by high throughput screening” (PLoS ONE, 2019)
Screen size: about 110,000 compounds; about 230 (0.21%) showed an effect of 50% or more. Some of the results follow.

Target: DPAP1 (Plasmodium falciparum, UniProt Q8IIJ9)
Assay: primary screen, percent inhibition; read by cleavage of a fluorogenic dipeptide substrate; higher = more effect of the substance
Set-up: species or system P. falciparum D10 trophozoite lysates; single well
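Note: 30 min substrate incubation versus DMSO and 10 µM JCP410 controls.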

DPAP1, sequence (Q8IIJ9 whole entry, looked up): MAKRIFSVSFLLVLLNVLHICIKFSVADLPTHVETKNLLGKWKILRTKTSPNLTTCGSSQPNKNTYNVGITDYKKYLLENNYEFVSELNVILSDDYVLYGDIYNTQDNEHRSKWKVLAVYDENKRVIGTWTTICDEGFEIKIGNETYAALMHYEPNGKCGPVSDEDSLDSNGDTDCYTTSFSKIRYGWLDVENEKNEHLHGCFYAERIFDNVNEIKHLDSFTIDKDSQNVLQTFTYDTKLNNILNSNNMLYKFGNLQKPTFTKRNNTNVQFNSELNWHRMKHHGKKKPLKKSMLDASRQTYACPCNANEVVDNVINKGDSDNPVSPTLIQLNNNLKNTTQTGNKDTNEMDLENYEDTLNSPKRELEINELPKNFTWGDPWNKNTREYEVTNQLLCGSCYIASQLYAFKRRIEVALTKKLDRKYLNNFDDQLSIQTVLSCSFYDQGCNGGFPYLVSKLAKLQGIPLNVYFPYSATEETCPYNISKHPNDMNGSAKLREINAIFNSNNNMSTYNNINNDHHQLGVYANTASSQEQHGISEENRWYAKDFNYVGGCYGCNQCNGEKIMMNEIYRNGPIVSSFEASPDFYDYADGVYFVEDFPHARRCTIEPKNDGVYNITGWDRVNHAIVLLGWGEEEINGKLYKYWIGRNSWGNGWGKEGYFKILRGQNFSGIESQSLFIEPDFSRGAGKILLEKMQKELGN

Row | Structure (SMILES) | % Inhibition @ 10 uM [%]
1 | O=C(NCCc1ccc(Cl)cc1)c1ccc(CN2CC(=O)N3CCCCC3C2=O)cc1 (centres unmarked) | 2.22
2 | CCOc1ccc(S(=O)(=O)NCc2ccccc2Cl)cc1C(N)=O | -3.34
3 | O=C1CC(N2CCc3ccccc3C2)C(=O)N1c1ccccc1Cl (centres unmarked) | 0.528
4 | CCN(CC)CCN(C)C1CCCC(C)C1 (centres unmarked) | -1.56
5 | c1ccc(OCCCn2ccnc2)cc1 | 1.04
6 | O=C(CN1C(=O)S/C(=C/c2ccccc2Cl)C1=O)N1CCOCC1 | 0.793
7 | CC(=O)Nc1cccc(/N=C/c2c(C)nn(-c3ccc(C)cc3)c2O)c1 | 3.45
8 | Cc1oc2ccc(OC(C)C(=O)O)cc2c1C(=O)OC(C)C (centres unmarked) | 1.67
9 | CC(C)c1ccc(NC(=O)Nc2ccccc2)cc1 | -0.127
10 | CCOC(=O)N1CCC(NC(=O)C(CC(C)C)NC(=O)C2CCC(C)CC2)CC1 (centres unmarked) | -1.73
11 | COc1ccc(C)cc1-n1nnc(-c2nc(-c3cccs3)no2)c1N | -1.59
12 | COCCCNC(=O)C1CCCN(S(=O)(=O)N2CCC3(CC2)OCCO3)C1 (centres unmarked) | -4.37
13 | COCc1cc(C)nc2sc3c(-c4ccccc4)[nH]nc3c12 | 4.31
14 | Cc1ccc(Cn2c(C(=O)O)cc3sccc32)cc1 | 2.9
15 | CC(NC(=O)c1cc(-c2ccccc2)c(N2CCOCC2)s1)c1ccccc1 (centres unmarked) | -3.34
16 | Cc1c(Cc2ccccc2)c(O)n2c(nc3ccccc32)c1C#N | 4
17 | CC(C)Cc1csc(NC(=O)c2ccc(Br)cc2)c1C(=O)O | -4.43
18 | CNS(=O)(=O)c1cn(CC(=O)N(C)Cc2ccccc2)cc1S(=O)(=O)NC | -5.9
19 | CCOC(=O)c1c(C)[nH]c(C)c1S(=O)(=O)NC(C)(C)C | 2.26
20 | CCCCC(=O)Nc1nc(-c2ccc(S(=O)(=O)N3CCCC3)cc2)cs1 | -1.84
21 | Cc1ccc(N2CC(C(=O)NCC(C)C)CC2=O)cc1 (centres unmarked) | -8.58
22 | Cc1ccc(NC(=O)C(Cc2ccccc2)N2C(=O)C3C4C=CC(C4)C3C2=O)cc1C (centres unmarked) | -4.56
23 | COc1ccc(OCC(=O)N2CCN(c3ccccc3)CC2)cc1 | 10.4
24 | O=S(=O)(c1cc(Cl)ccc1Cl)N1CCN(c2cccc(Cl)c2)CC1 | -3.04
25 | O=c1oc2c(F)cc(F)cc2cc1S(=O)(=O)c1ccccc1 | -1.3

Row | Structure (SMILES) | % Inhibition @ 10 uM [%]
26 | CCOc1ccc2nc(N3CCC(C(=O)NC(C)c4ccccc4)CC3)sc2c1 (centres unmarked) | 1.8
27 | NS(=O)(=O)c1ccc(CCNC(=O)CNC(=O)C2CCCCC2)cc1 | -0.228
28 | O=C(O)c1ccccc1SC1CC(=O)N(c2ccccc2C(F)(F)F)C1=O (centres unmarked) | 1.34
29 | N#CC1=C(N)Oc2c(c(=O)oc3ccccc23)C1c1cccc(Cl)c1 (centres unmarked) | -2.51
30 | Cc1nc2nc(C)c(CCC(=O)N3CCN(Cc4ccccc4)CC3)c(C)n2n1 | -6.03
31 | Cc1nc2sc(C(=O)NC3CCCCC3)c(N)c2c(C)c1Cl | -4.04
32 | CN(c1cccc(NC(=O)CN(c2cccc(Br)c2)S(C)(=O)=O)c1)S(C)(=O)=O | 3.75
33 | O=c1cccc2n1CC1CC2CN(S(=O)(=O)c2ccc3nc(O)ccc3c2)C1 (centres unmarked) | -0.0401
34 | Cc1ccc(NS(=O)(=O)c2c(C)nc3sccn3c2=O)nc1 | -2.55
35 | CCOc1ccc(-c2nonc2NC(=O)c2ccccc2C)cc1OCC | -1.47
36 | COc1ccc(C(=O)C2=C(O)C(=O)N(CCc3ccccc3)C2c2ccc(F)cc2)cc1 (centres unmarked) | -7.98
37 | CCOc1cc(C2CC(=O)Nc3nc(SCc4cccc(C)c4)nc(O)c32)ccc1O (centres unmarked) | 2.25
38 | COc1ccccc1NC(=O)c1c(Cl)c(C)nn1C | -6.36
39 | CN(C)CCNC(=O)C1CCN(c2nn3cc(-c4ccc(F)cc4)nc3s2)CC1 | -5.54
40 | CC1=C(C(=O)Nc2ccccc2)C(c2cccs2)C(C#N)=C(SCC(=O)c2ccc(-c3ccccc3)cc2)N1 (centres unmarked) | -0.582
41 | CC(NC(=O)C(=O)NCc1ccc(F)cc1)C(c1cccs1)N1CCOCC1 (centres unmarked) | -1.08
42 | CC12CN3CC(C)(CN(C1)C3c1ccccn1)C2=O (centres unmarked) | 3.27
43 | COc1ccccc1CNC(=O)C1CCCN(S(=O)(=O)c2cccc3nonc23)C1 (centres unmarked) | -5.88
44 | C=CCOc1ccc(CNCc2cccs2)cc1 | 0.324
45 | O=C(NCc1ccc(F)cc1)c1cnc2ccc(S(=O)(=O)N3CCOCC3)cc2c1O | 1.88
46 | O=C(Nc1ccc(Cl)cc1C(=O)NCCCCO)c1ccc(Cl)cc1Cl | -1.82
47 | CCN1CCC2(CC1)OC(=O)C(C)=C2C(=O)NCCC1=CCCCC1 | -4.38
48 | COc1ccc(C2OCC(C)(C)CO2)cc1Br | -1.61
49 | O=S(=O)(c1ccc(Cl)nc1)N1CCCCC1 | 3.93
50 | COc1ccc(C(=O)Nc2nc(-c3ccc(S(=O)(=O)N4CCCCCC4)cc3)cs2)cc1 | 1.88

Row | Structure (SMILES) | % Inhibition @ 10 uM [%]
51 | C/C(=C\S(=O)(=O)c1ccc(C)cc1)NCc1ccccc1 | -0.984
52 | CCCn1c2ccccc2c2cnn(CC(=O)N(CCN(C)C)Cc3ccco3)c(=O)c21 | 4.39
53 | CCO/C(O)=C/C1=NC(C)(C)Cc2cc(OC)c(O)cc21 | 0.273
54 | COc1ccc(C2C(C#N)=C(N)Oc3cc(C)n(Cc4ccccn4)c(=O)c32)c(OC)c1OC (centres unmarked) | -4.78
55 | CCOC(=O)C1=CN(C)C=C(C(=O)OCC)C1c1ccc(OC)c(OC)c1 | 6.48
56 | CCOC(=O)C1=C(C)N(CCOC)C(=O)/C1=C\c1ccc(C(=O)OC)cc1 | 1.81
57 | Clc1cccc(CN2CCN(c3cccc(Cl)c3)CC2)c1 | -0.294
58 | CCc1ccc(S(=O)(=O)c2nnn3c2nc(N)c2cc(Cl)ccc23)cc1 | 0.291
59 | Cc1nnc(NC(=O)COc2ccc(C(C)C)c(C)c2)s1 | 0.484
60 | CC(C)CCNC(=O)C1CCCN(S(=O)(=O)N2CC(C)CC(C)C2)C1 (centres unmarked) | 0.514
61 | CC(=O)c1ccc(N2CCN(C/C=C/c3ccccc3)CC2)cc1 | 1.9
62 | COc1cc(OC)cc(C(=O)Nc2nc(-c3nnn(-c4ccc(C)c(Cl)c4)c3C)ns2)c1 | -5.67
63 | O=C(Nc1nc(COc2ccccc2)cs1)C1CCC1 | 4.31
64 | CN1CCN(C(=O)CCc2ccc(S(=O)(=O)NC3CCCCC3)cc2)CC1 | 3.53
65 | COc1ccc(CCn2c(C)c3c(C)nnc(C)c3c2C)cc1OC | -2.75
66 | O=C(c1ccco1)N1CCC(c2c[nH]c3ccccc23)(c2c[nH]c3ccccc23)CC1 | -0.637
67 | COCCn1c(=N)c(C(=O)NCCN2CCOCC2)cc2c(=O)n3cc(C)ccc3nc21 | -5.14
68 | CCCCNC(=O)Cn1c(=S)[nH]c2c([nH]c3ccc(OC)cc32)c1=O | 1.15
69 | O=C(/C=C/c1ccc(F)cc1)N1CCN(c2ccc(Cl)cc2)CC1 | 3.76
70 | COc1cc(OC)c(NC(=O)c2ccc([N+](=O)[O-])cc2)cc1Cl | 4.89
71 | COc1cc(C2SCC(C(=O)O)N2C(C)=O)cc(OC)c1O (centres unmarked) | 1.27
72 | Cc1cc(/C=C2\C(=N)N3N=C(S(C)(=O)=O)SC3=NC2=O)c(C)n1Cc1ccccc1 | 3.53
73 | CC1CCCN(C(=O)C2CCC(C/N=c3/c(N4CCCCC4)c(O)c3=O)CC2)C1 (centres unmarked) | 2.84
74 | Cc1ccc(N2C(=O)CCSC23C(=O)Nc2ccccc23)cc1 (centres unmarked) | 4.03
75 | CCN1C(=O)C(O)(CC(=O)c2ccc(OC)cc2OC)c2ccccc21 (centres unmarked) | -3.39

Row | Structure (SMILES) | % Inhibition @ 10 uM [%]
76 | COc1cc(CN2CCN(Cc3ccccc3F)CC2)cc(OC)c1OC | 2.39
77 | Cc1cccc(C)c1OCC(O)CN1CCc2ccccc2C1 (centres unmarked) | -0.564
78 | COCCNC(=O)Cn1nc(C)n2cccc2c1=O | -10.2
79 | CCCc1nc2c3ccccc3nc(O)n2n1 | 2.97
80 | O=C(O)CCCNCc1ccc(Cl)cc1 | -0.256
81 | CC1(C)CC2=Nc3nc(SCc4ccccc4F)nn3C(c3ccncc3)C2=C(O)C1 (centres unmarked) | 0.457
82 | Cc1ccc(C)c(NC(=O)c2sc(Cl)nc2C)c1 | 3.24
83 | COc1ccc(CNC(=O)CCc2c(C)c3ccc(O)c(C)c3oc2=O)cc1OC | -2.57
84 | CC(C)(C)NC(=O)Cn1c(=O)[nH]c2ccsc2c1=O | -3.23
85 | OCC1CCCN(Cc2ccc3ccccc3c2)C1 (centres unmarked) | -3.27
86 | CCO/C(O)=C1\C(CC)=NC2=C(C(=O)CCC2)C1c1ccc(Cl)cc1Cl (centres unmarked) | 1.13
87 | COc1cc([C@@H]2[C@H]3CN(C)CC=C3C(C#N)=C(N)C2(C#N)C#N)ccc1OC(C)C | 21.8
88 | CN(CCNC(=O)c1ccc(CS(=O)(=O)Cc2ccc(Cl)cc2)o1)Cc1ccccc1 | 0.387
89 | CCn1cc(C2=NOC(C(=O)NCCN3CCOCC3)C2)c(C)n1 (centres unmarked) | 4.95
90 | CN(C)c1ccc(/C=C/CN2CC=C(c3ccc(F)cc3)CC2)cc1 | 1.57
91 | O=C(O)C(O)(c1ccccc1)C(O)c1ccccc1 (centres unmarked) | 2.36
92 | O=C(c1cccnc1)N1CCN(C(c2ccccc2)c2ccccc2)CC1 | 3.44
93 | Cc1ccc2c(c1)-c1onc(C(=O)N(C)Cc3ccco3)c1CO2 | 4.58
94 | CCOC(=O)c1nnn(-c2nonc2N)c1CN1CCCC(C)C1 (centres unmarked) | -3.64
95 | CC1CCCCC1NC(=O)NCc1noc2ccccc12 (centres unmarked) | 6.84
96 | CCc1cccc(O[C@@H]2O[C@@H]3COC(C)(C)O[C@H]3[C@H](O)[C@H]2NC(C)=O)c1 | 0.673
97 | O=c1c2c(Br)c3c(=O)n(CCO)c(=O)c3c(Br)c2c(=O)n1CCO | 21.6
98 | CC(=O)c1c(S)nc(-c2ccccc2)nc1NCc1ccccc1 | 5.35
